Data as given in PubChem BioAssay AID686978 (National Center for Advancing Translational Sciences (NCATS), 2013).
Where “and” joins values, the source holds several entries; their conditions need not be identical. Identical values can stand only once. Hit rate of the full screen: of about 420,000 compounds, about 64,000 (15%) were called active. The inconclusive results got no clear call from the source; some entries with a clear call stand among them for comparison. Calls follow the shape of the dose curve; as a rule, active = well fitted inhibition curve with a large enough effect; inconclusive = small, poorly fitted or top-dose-only effect; inactive = flat fitted curve, though single readings scatter. No potency is given beside an inconclusive call; the fits are too rough. Some compounds were tested as several samples or in several runs, with calls that do not always agree.

assay: qHTS for Inhibitors of human tyrosyl-DNA phosphodiesterase 1 (TDP1): qHTS in cells in absence of CPT; settings: DT40 Tdp1-/- hTDP1 cells, no CPT, ATP luminescence, 48 h; activity change, negative = growth inhibition: at 46.2 µM (top of the series); also: nearly all actives have a fitted effect of over 55% in size
Method in brief: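 Luminescent ATP content (CellTiter-Glo) served as the growth readout. Knockout chicken DT40 cells expressing human TDP1 were exposed to compounds without camptothecin for a minimum 48 hr at 37 °C.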
% is scaled to controls: 0 for no effect and ±100 for the full control effect; potency is read from the fitted curve at half-maximal effect; tags tell the direction and shape of the fitted curve.

| SMILES | Potency | activity change, negative = growth inhibition |
| --- | --- | --- |
| NS(=O)(=O)c1ccc(CCNS(=O)(=O)c2ccc(Cl)nc2)cc1 | inactive |  |
| Cc1cc(C)n2c(=O)[nH]nc2c1 | inactive |  |
| CCNc1c(NS(=O)(=O)c2ccc(OC)c(Cl)c2)c(=O)oc2ccccc12 | inconclusive [inhibitor, single point] |  |
| COc1ccc(C(=O)NC(=S)Nc2cccc3ncccc23)cc1[N+](=O)[O-] | inconclusive [inhibitor, single point] |  |
| Cc1cccc(C)c1OCC(=O)Nc1cccc(NC(=O)c2ccco2)c1 | inconclusive [inhibitor, single point] |  |
| O=C(NN=C1CCCCCC1)c1cn(-c2ccccc2)nc1-c1ccccc1 | inconclusive [inhibitor, single point] |  |
| CC(=O)c1cccc(NC(=O)c2ccc3c(c2)CCCC3)c1 | inconclusive [inhibitor, single point] |  |
| CCOc1ccc(CNC(=O)CCS(=O)(=O)c2cc3c4c(c2)CCN4C(=O)CC3)cc1 | inactive |  |
| Cc1ccc(NC(=O)C(c2ccccc2)c2ccccc2)nc1 | inconclusive [inhibitor, partial curve, poor fit] |  |
| Nc1nc(-c2cccs2)c(NC(=O)c2ccccc2)s1 | active: 18.4 µM |  |
| O=C(c1ccccc1)c1ccc(C(=O)O)c(C(=O)O)c1 | inactive |  |
| O=C(CSc1nc2ccccc2o1)N1N=C(c2cccs2)CC1c1ccc(F)cc1 (stereo unspecified) | inconclusive [inhibitor, single point] |  |
| COc1ccc(NC(=S)N=Nc2c(O)[nH]c3ccccc23)cc1 | active: 5.8 µM |  |
| Cc1cc(C)nc(N2CCC(C(=O)Nc3ccc(Oc4ccccc4)cc3)CC2)n1 | active: 8.2 µM |  |
| COc1ccc(C)cc1NC(=O)CCC(=O)Nc1nnc(C2CCCCC2)s1 | inactive |  |
| CCOc1cc(/C=C/C(=O)c2ccc3c(c2)OCCO3)ccc1OCC(=O)N(C)C | active: 23.1 µM |  |
| COC[C@H]1CCCN1c1ccc2c(c1)O[C@H](COCc1ccccc1)CN([C@H](C)c1ccccc1)S2(=O)=O | active: 18.4 µM |  |
| O=C(O)c1cccc(COc2cccc3ccccc23)c1 | inactive |  |
| CCOC(=O)c1c(C)oc2ncnc(Nc3ccc(CC)cc3)c12 |  | inconclusive: -31% [inhibitor] |
| CCc1ccc(NC(=O)NCCN2CCc3ccccc3C2)cc1 | inconclusive [inhibitor, single point] |  |
| Cc1cccc(CSc2ncc(CO)n2C)c1 | inconclusive [inhibitor, single point] |  |
| CN(C)c1ccc(C=NNC(=O)c2cccnc2)cc1 |  | inconclusive: -34.5% [inhibitor] |
| COc1ccc(Cl)cc1NC(=O)Nc1ccc(C(=O)N2CCOCC2)cc1 | inactive |  |
| CC(C)Nc1ccc(C(CC(N)=O)NC(=O)Cc2ccc(Cl)cc2)cc1[N+](=O)[O-] (stereo unspecified) | inconclusive [inhibitor, partial curve] |  |
| COc1ccc(Cc2c(-c3ccc(C)cc3)nc3c(C)cc(Br)cn23)c(C)c1 | inconclusive [inhibitor, single point] |  |
| COc1ccc(S(=O)(=O)N(C)C[C@H]2OCc3cnnn3CCCC(=O)N([C@H](C)CO)C[C@@H]2C)cc1 | inactive |  |

| SMILES | Potency | activity change, negative = growth inhibition |
| --- | --- | --- |
| CN(C)CCCN1c2ccccc2Sc2ccc(Cl)cc21 | active: 10 µM and active: 23.7 µM and active: 23.1 µM |  |
| O=C(COC(=O)/C=C/c1ccccc1)NCC1CCCO1 (stereo unspecified) | inactive |  |
| Nc1nc(NCCc2ccccc2)nc(NCc2ccccc2)c1[N+](=O)[O-] | inconclusive [inhibitor, single point] |  |
| Cc1cc(C)cc(OC(=O)c2cc(-c3ccc4c(c3)OCCO4)on2)c1 | inactive |  |
| O=C(Nc1cc(C(F)(F)F)ccc1-n1cncn1)c1cn2ccccc2n1 |  | inconclusive: -30.9% [inhibitor] |
| CC1(C)CC(=O)C2=C(C1)OC(N)=C(C#N)C2c1cn(-c2ccccc2)nc1-c1ccc(F)cc1 (stereo unspecified) | inconclusive [inhibitor, single point] |  |
| Cc1cccc(N=N/C(=C\O)C(=O)c2cccs2)c1 | inconclusive [inhibitor, single point] |  |
| CCOC(=O)c1ccc(NC(=O)Nc2ccon2)cc1 | active: 0.0184 µM |  |
| COc1ccc(COC(=O)NC2CCN(S(=O)(=O)c3ccc(OC)cc3)CC2)cc1 | inconclusive [inhibitor, partial curve] |  |
| CCNC(=S)Nc1ccc2c(c1)c(=O)n(C)n2Cc1cccc(C(F)(F)F)c1 | active: 23.1 µM |  |
| CC1CCC2(CC1)NC(=O)N(CC(=O)Nc1cccc(S(=O)(=O)N(C)c3ccccc3)c1)C2=O (stereo unspecified) | active: 29.1 µM |  |
| Cc1cc2n(n1)SC(Nc1ccc(F)cc1)N2 (stereo unspecified) | inconclusive [inhibitor, single point] |  |
| CC(=O)c1ccc(NC(=O)C(Cc2ccccc2)NS(=O)(=O)c2ccc3c(c2)CCC(=O)N3)cc1 (stereo unspecified) | inactive |  |
| CN(CC(=O)Nc1ccccc1Br)C(=O)c1n[nH]c2ccccc12 | inactive |  |
| Cc1ccc(NC(=O)/C=C\C(=O)NCC(=O)O)cc1 | inactive |  |
| Cc1cc(NC(=O)Cc2ccccc2[N+](=O)[O-])no1 | inconclusive [inhibitor, single point] |  |
| CCCCC(=O)Nc1ccc2c3c(cccc13)CC2 | inconclusive [inhibitor, single point] |  |
| CCC(CO)Oc1cc(NCc2cccc(O)c2)c2ncn(C(C)C)c2c1 (stereo unspecified) | inconclusive [inhibitor, single point] |  |
| CN1CCN(c2nc(-c3cccs3)cc(C(F)(F)F)n2)CC1 | inconclusive [inhibitor, single point] |  |
| COC(=O)c1cc(C#N)c(=O)[nH]c1C | inactive |  |
| COc1ccc(S(=O)(=O)Nc2ccccc2OC)cc1C | inactive |  |
| COc1ccc(-c2cc(C(F)(F)F)n3nc(C(=O)OC(C)C)cc3n2)cc1 | active: 16.4 µM |  |
| COc1cccc(/C=N/Nc2nc3ccccc3[nH]2)c1O | active: 23.1 µM |  |
| COc1ccc(N2CCN(C(=O)c3ccc(Br)o3)CC2)cc1 | inactive |  |
| CCc1ccccc1NC(=O)CN(C)C(=O)Cn1cnc2ccc(Cl)cc2c1=O | inactive |  |
| Cc1nn(Cc2ccccc2)c(Cl)c1/C=C/C(=O)OC(C)C(=O)N1CCCC1 (stereo unspecified) | inconclusive [inhibitor, partial curve, poor fit] |  |

| SMILES | Potency | activity change, negative = growth inhibition |
| --- | --- | --- |
| Cc1nc2c(OCc3ccccc3)cccn2c1N(C)C(=O)C1CCCCC1 | inconclusive [inhibitor, single point] |  |
| CCc1ccc2oc(C(=O)Nc3nc(-c4ccc(F)cc4)ns3)c(C)c2c1 | inconclusive [inhibitor, single point] |  |
| CN(C(=O)CSc1nc2sc3c(c2c(=O)n1C)CCC3)C1CCS(=O)(=O)C1 (stereo unspecified) | inconclusive [inhibitor, partial curve] |  |
| CC(=O)c1c(C)[nH]c(C(=O)OCC(=O)Nc2cc(C(F)(F)F)ccc2N2CCOCC2)c1C | inconclusive [inhibitor, single point] |  |
| O=C(COC(=O)c1ccccc1C(=O)c1ccc(Cl)c([N+](=O)[O-])c1)NC1CC1 | active: 16.4 µM |  |
| COc1ccccc1CNC(=O)Cn1cc(Br)ccc1=O | inactive |  |
| CN1C(=O)/C(=C\c2ccc(OC(=O)c3ccco3)cc2)SC1=S | inconclusive [inhibitor, single point] |  |
| COc1ccc(C(=O)N/C(=C/c2cccnc2)C(=O)N2CCN(C)CC2)cc1OC | inactive |  |
| Cc1c(C2=CCN(S(=O)(=O)c3ccc(Cl)cc3)CC2)c2ccccc2n1CC(=O)N1CCCC1 | inconclusive [inhibitor, single point] |  |
| O=C1N=C(N2CCC(Cc3ccccc3)CC2)S/C1=C/c1cn[nH]c1-c1ccccc1 | active: 16.4 µM |  |
| Cc1nnc2c(NC3CCCC3)nc3ccccc3n12 | inconclusive [inhibitor, single point] |  |
| Cc1ccc(C(=O)N2CCCCC2)cc1S(=O)(=O)N1CCCCCC1 | inactive |  |
| O=C(CC1(O)C(=O)N(CCc2ccccc2)c2ccc(Br)cc21)c1ccccc1 (stereo unspecified) | inconclusive [inhibitor, single point] |  |
| COC(=O)N/N=C/c1ccc(-c2cc(Cl)ccc2Cl)o1 | inactive |  |
| OC(CBr)C[n+]1cccc2cc(Br)ccc21 (stereo unspecified) | active: 11.2 µM |  |
| COc1ccc(C(=O)Nc2ccc(S(=O)(=O)N(C)c3ccccc3)cc2)cc1 | active: 16.4 µM |  |
| CCOc1ccccc1CNC(=O)C1CCN(c2nnc(C)c3c(C)n(-c4ccc(C)cc4)nc23)CC1 | active: 2.91 µM and active: 13 µM |  |
| CC1CC(C)(C)NC(=S)N1CCC(=O)N1CCc2ccccc21 (stereo unspecified) | inconclusive [inhibitor, single point] |  |
| C=CCC(NCc1ccccc1)c1ccc(Cl)cc1 (stereo unspecified) | active: 13 µM |  |
| O=C(C1CCN(S(=O)(=O)c2ccc(-n3cnnn3)cc2)CC1)N1CCN(c2ccccc2)CC1 | inconclusive [inhibitor, single point] |  |
| CCN(CC)C(=O)/C=C/c1ccc(OC)c(S(=O)(=O)N2CCCCC2)c1 | inconclusive [inhibitor, single point] |  |
| CCn1c(COc2ccccc2C(N)=O)nc2ccccc21 |  | inconclusive: -33.5% [inhibitor] |
| CC(=O)c1cc(F)c(N2CCN(C(=O)C(C)(C)C)CC2)cc1C | active: 20.6 µM |  |
| Cc1ccc(C2CC(c3cccs3)n3nc(N)nc3N2)cc1 (stereo unspecified) | inactive |  |
